Measurements published in PubChem BioAssay AID2147 (National Center for Advancing Translational Sciences (NCATS), 2009).
About 3,600 (1.6%) of roughly 230,000 compounds were called active. Inconclusive means that the source gave no clear call. Such entries were picked first, then a sample of the others. Calls come from the whole dose curve; as a rule, active = well fitted inhibition curve with a large enough effect (not every such curve was filed as active); inconclusive = small, poorly fitted or top-dose-only effect, or another doubt; inactive = no such curve, though single readings can be large or run the other way. Potencies of inconclusive entries are doubtful fits and often do not repeat.

The compounds below were run against Lysine-specific demethylase 4E (Homo sapiens) (UniProt B2RXH2) (assay: qHTS Assay for Inhibitors of Human Jumonji Domain Containing 2E (JMJD2E)). Conditions: JMJD2E catalytic domain, FDH-coupled NADH fluorescence (FDH is formaldehyde dehydrogenase); series mostly up to 57.1 µM.
UniProt B2RXH2, sequence (B2RXH2 whole entry, looked up, the tested form may be a part): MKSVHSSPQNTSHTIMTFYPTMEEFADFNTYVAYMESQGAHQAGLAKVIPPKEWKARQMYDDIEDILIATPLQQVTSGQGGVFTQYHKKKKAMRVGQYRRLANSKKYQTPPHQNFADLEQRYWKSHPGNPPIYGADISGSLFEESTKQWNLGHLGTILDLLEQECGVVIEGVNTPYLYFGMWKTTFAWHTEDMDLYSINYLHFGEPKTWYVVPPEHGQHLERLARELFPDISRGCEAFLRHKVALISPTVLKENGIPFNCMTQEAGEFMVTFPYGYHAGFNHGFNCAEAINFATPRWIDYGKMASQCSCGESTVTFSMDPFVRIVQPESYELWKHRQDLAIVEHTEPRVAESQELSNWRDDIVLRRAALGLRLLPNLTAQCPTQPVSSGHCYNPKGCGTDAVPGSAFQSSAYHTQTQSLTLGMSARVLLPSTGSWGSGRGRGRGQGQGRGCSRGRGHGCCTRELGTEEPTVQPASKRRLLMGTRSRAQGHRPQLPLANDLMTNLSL
Note: nearly all actives have a fitted effect of over 50% in size.
Potency is the fitted concentration of half-maximal effect; tags give direction and shape of the fitted curve.

Row | Structure (SMILES) | Potency
1 | O=C(Cc1c(O)c2ccccc2[nH]c1=O)NCc1ccccc1 | inconclusive: 35.5 µM [inhibitor, single point]
2 | COc1cccc(OCCCN2CCCCCC2)c1 | inconclusive: 31.6 µM [inhibitor, single point]
3 | Cc1cc(/C=C2/C(=O)N(C)C(=S)N2C)c(C)n1C1CC1 | inactive
4 | CCc1nc(NCC2CCCO2)c2oc3ccccc3c2n1 (stereo not given) | inconclusive: 39.8 µM [inhibitor, single point]
5 | CCCn1c(-c2ccc(OC)cc2)nc2c(=O)n(C)c(=O)[nH]c21 | inconclusive: 7.94 µM [inhibitor, partial curve]
6 | Cc1cccc(NC(=O)CC2Nc3cccc4cccc(c34)NC2=O)c1 (stereo not given) | inconclusive: 3.55 µM [inhibitor, full curve]
7 | Cn1nc(-c2ccc(N3CCCCC3)c(NC(=O)c3ccco3)c2)c2ccccc2c1=O | inconclusive: 39.8 µM [inhibitor, single point]
8 | O=C(c1coc(=O)c(Br)c1)N1CCC(C(O)(c2ccccc2)c2ccccc2)CC1 | inconclusive: 28.2 µM [inhibitor, partial curve]
9 | CCOC(=O)N1CCC(NC(=O)CSc2cc(=O)n(CC)c3ccccc23)CC1 | inconclusive: 35.5 µM [inhibitor, single point]
10 | CCn1nc(C)c(CNC(=O)c2cc(COc3ccc(F)cc3Cl)on2)c1C | inactive
11 | Cc1cccc(-n2c(=O)[nH]c3c(C(N)=O)nc(C(C)C)nc32)c1 | inconclusive: 31.6 µM [inhibitor, partial curve]
12 | CCOC(=O)/C(=C/c1ccc(OC(=O)c2ccccc2)cc1)C(C)=O | active: 7.94 µM
13 | CC(C)n1cnc2c(NCc3ccccc3)nc(NCc3ccccc3)nc21 | inconclusive: 31.6 µM [inhibitor, single point]
14 | O=C(Nc1sc2c(c1C(=O)c1ccc(Cl)cc1)CCCC2)c1cccnc1 | inactive
15 | COCC(=O)Nc1nc2n(n1)C(c1ccc(OC)cc1)CC(c1ccc(OC)cc1)N2 (stereo not given) | inconclusive: 39.8 µM [inhibitor, single point]
16 | Cn1c(NNC(=O)C(c2ccccc2)c2ccccc2)cc(=O)n(C)c1=O | inactive
17 | c1ccc(-c2cc(-c3ccccc3)n3ncnc3n2)cc1 | inconclusive: 22.4 µM [inhibitor, partial curve]
18 | CCOC(=O)c1cc(-c2ccccc2)sc1NC(=O)C(C)(C)C | inconclusive: 8.91 µM [inhibitor, partial curve]
19 | COc1ccc2cc(CN(Cc3cccnc3)S(=O)(=O)c3ccccc3)c(=O)[nH]c2c1 | inconclusive: 25.1 µM [inhibitor, partial curve]
20 | CC(OC(=O)c1ccc(S(=O)(=O)NCc2ccco2)cc1)C(=O)Nc1ncc(Cl)cc1Cl (stereo not given) | inconclusive: 39.8 µM [inhibitor, single point]
21 | CNC(=S)N/N=C(\C)c1ccc2c(c1)OCO2 | inactive
22 | COc1ccc(NC(=O)c2nc(C)n(-c3ccc([N+](=O)[O-])cc3)n2)cc1 | inactive
23 | O=C1C=C(Nc2ccccc2C(=O)O)c2ccccc2C1=O | inconclusive: 28.2 µM [inhibitor, partial curve]

Row | Structure (SMILES) | Potency
24 | COCCCn1c(C)nc2c(c1=O)c1nc3ccccc3nc1n2CCc1ccccc1 | inconclusive: 7.94 µM [inhibitor, full curve]
25 | Nc1cccc2c1C(=O)N(CC(=O)NC13CC4CC(CC(C4)C1)C3)C2=O | inconclusive: 31.6 µM [inhibitor, partial curve]
26 | COc1ccccc1/C=C/C1=NC(=C\N(C)C)/C(=O)O1 | inconclusive: 25.1 µM [inhibitor, partial curve]
27 | O=S(=O)(c1ccc(Cl)cc1)N1CCCN(c2nc3ccc(Cl)cc3s2)CC1 | inactive
28 | c1ccc(Sc2ncccn2)nc1 | inactive
29 | Nc1ccc(C(=O)Nc2nc3ccccc3s2)cc1 | inconclusive: 28.2 µM [inhibitor, partial curve]
30 | Cc1ccc(-c2oc3ncnc(N)c3c2-c2ccc(C)cc2)cc1 | inconclusive: 22.4 µM [inhibitor, partial curve]
31 | Cc1ccc(-c2oc3ccccc3c(=O)c2OCC(=O)O)cc1 | inconclusive: 31.6 µM [inhibitor, partial curve]
32 | Nc1c(NC(=O)CC[n+]2ccccc2)cccc1[N+](=O)[O-] | inconclusive: 39.8 µM [inhibitor, single point]
33 | CC(=O)c1cccc(NC(=O)C(C)N(C)CC(=O)Nc2ccc(Cl)cc2)c1 (stereo not given) | inactive
34 | CCCn1c(-c2ccc(F)cc2)nc2c(NCCCCN(C)C)nc(C)nc21 | inconclusive: 25.1 µM [inhibitor, partial curve]
35 | CCOC(=O)c1nn(-c2ccccc2C)c2nc(-c3ccc(C)cc3)c(C#N)c(=O)n12 | inconclusive: 35.5 µM [inhibitor, single point]
36 | Cc1cccc2cc(CN(Cc3ccco3)C(=O)c3cccs3)c(=O)[nH]c12 | inconclusive: 15.8 µM [inhibitor, single point]
37 | Cc1cc(C(=O)CSc2nn3c(=O)c(C(C)(C)C)nnc3s2)c(C)n1C | inactive
38 | COc1ccc(-c2cc(C(F)(F)F)n3ncc(C(=O)N(C)Cc4ccccc4)c3n2)cc1 | inconclusive: 35.5 µM [inhibitor, partial curve]
39 | COc1ccc(C(=O)c2cc([N+](=O)[O-])ccc2N2CCN(C)CC2)cc1 | active: 1 µM
40 | O=C(NC(=S)N1CCCCCC1)c1ccc(Cl)cc1Cl | inactive
41 | Cc1ccc2c(c1)Sc1ccccc1CC2=O | inconclusive: 6.31 µM [inhibitor, single point]
42 | COc1ccc(/C=N/NC(=O)Cn2cnc3c2c(=O)n(C)c(=O)n3C)c(OC)c1OC | inactive
43 | COc1ccc(NS(=O)(=O)c2ccc(O)c(C(=O)OCC(=O)NC(C)C3CC4CCC3C4)c2)cc1 (stereo not given) | inactive
44 | COc1cccc(NC(=O)Cn2c3ccccc3c3nc4n(c(=O)c32)CCS4)c1 | inconclusive: 31.6 µM [inhibitor, partial curve]
45 | O=c1oc2c3c4c(cc2s1)CCCN4CCC3 | inconclusive: 39.8 µM [inhibitor, single point]
